Results taken from patent publication US20210070829A1 (ZHEJIANG DOER BIOLOGICS, published 2021).
Like-named read-outs stand apart in the source and are kept apart here.

Tests used:
Test in all cases: cell-based or functional assay
human GLP-1 receptor [1] = molecular target: T1, human GLP-1 receptor (human, UniProt P43220)
Glucagon receptor [2] = molecular target: Glucagon receptor
human GLP-1 receptor [3] = molecular target: T1, human GLP-1 receptor; remark: listed apart in the source
Glucagon receptor [4] = molecular target: Glucagon receptor; remark: listed apart in the source
human GLP-1 receptor [5] = molecular target: T1, human GLP-1 receptor; remark: listed apart in the source
Glucagon receptor [6] = molecular target: Glucagon receptor; remark: listed apart in the source
[7] = molecular target: FGFR/β-Klotho receptor complex

Binder | GLP-1R agonist activity EC50 (luciferase reporter) (human GLP-1 receptor [1]) [nM] | GCGR agonist activity EC50 (luciferase reporter) (Glucagon receptor [2]) [nM] | GLP-1R agonist activity EC50 (luciferase reporter) (human GLP-1 receptor [3]) [nM] | GCGR agonist activity EC50 (luciferase reporter) (Glucagon receptor [4]) [nM] | also measured
C618L12F4 (Fc fusion) HSQGTFTSDLSKQMDSRAAQDFIEWLKNGGPSSGAPPPSGGGGAGGGGAGGGGAA[human IgG1 Fc with changes omitted here] | 1.32 | 1.27 |  |  | 
C623L9F3 (Fc fusion) HSQGTFTSDLSKQMDSREAQDFIEWLKNTGPSSGAPPPSGGGGSGGGGSGGGGS[human IgG1 Fc with changes omitted here] | 1.26 | 1.17 |  |  | 
C368L10F4 (Fc fusion) HSQGTFTSDYSKYLDEQAAQDFVQWLMNTGPSSGAPPPSGGGGAGGGGAGGGGA[human IgG1 Fc with changes omitted here] | 1.72 | 1.42 |  |  | 
C364L10F4 (Fc fusion) HSQGTFTSDYSKYLDGQAAQDFVQWLMNGGPSSGAPPPSGGGGAGGGGAGGGGA[human IgG1 Fc with changes omitted here] | 1.65 | 1.48 |  |  | 
C187L9F4 (Fc fusion) HSQGTFTSDYSKYLDSQRAQDFVQWLMNTGPSSGAPPPSGGGGSGGGGSGGGGS[human IgG1 Fc with changes omitted here] | 1.53 | 1.2 |  |  | 
C508L7F4 (Fc fusion) HSQGTFTSDYSKYLEEEAVRLFIQWLMNGGPSSGAPPPSGGSGGGSGGGGS[human IgG1 Fc with changes omitted here] | 1.77 | 1.45 |  |  | 
C228L13F4 (SEQ ID NO. 120) (Fc fusion) HSQGTFTSDYSKYLDEERAQDFVQWLMNTGPSSGAPPPSGGGGSGGGGSGGGGSA[human IgG1 Fc with changes omitted here] | 1.81 | 1.52 |  |  | 
C228L13F4 (SEQ ID NO. 124) (Fc fusion) HSQGTFTSDYSKYLDEERAQDFVQWLMNTGPSSGAPPPSGGGGSGGGGSGGGGSA[human IgG1 Fc with changes omitted here] | 1.87 | 1.51 |  |  | 
C289L12F4 (Fc fusion) HSQGTFTSDYSKYLDGEAAQDFVQWLMNGGPSSGAPPPSGGGGAGGGGAGGGGAA[human IgG1 Fc with changes omitted here] | 2.54 | 2.01 |  |  | 
C240L13F8 (Fc fusion) HSQGTFTSDYSKYLDERAAQDFVQWLMNGGPSSGAPPPSGGGGSGGGGSGGGGSA[human IgG4 Fc with S228P N297A (EU numbers) omitted here] |  |  | 1.54 | 1.45 | GLP-1R agonist activity ratio (after against before insertion of Cex; reference CG283L13F8) (human GLP-1 receptor [3]): 215 fold
C232L13F8 (Fc fusion) HSQGTFTSDYSKYLDSQAAQDFVQWLMNTGPSSGAPPPSGGGGSGGGGSGGGGSA[human IgG4 Fc with S228P N297A (EU numbers) omitted here] |  |  | 1.94 | 1.34 | GLP-1R agonist activity ratio (after against before insertion of Cex; reference C214L13F8) (human GLP-1 receptor [3]): 226 fold
C364L13F8 (Fc fusion) HSQGTFTSDYSKYLDGQAAQDFVQWLMNGGPSSGAPPPSGGGGSGGGGSGGGGSA[human IgG4 Fc with S228P N297A (EU numbers) omitted here] |  |  | 1.81 | 1.57 | GLP-1R agonist activity ratio (after against before insertion of Cex; reference C319L13F8) (human GLP-1 receptor [3]): 209 fold
C462L13F8 (Fc fusion) HSQGTFTSDYSKYLDEEAAQDFVQWLMNGGPSSGAPPPSGGGGSGGGGSGGGGSA[human IgG4 Fc with S228P N297A (EU numbers) omitted here] |  |  | 2.11 | 1.38 | GLP-1R agonist activity ratio (after against before insertion of Cex; reference CG303L13F8) (human GLP-1 receptor [3]): 214 fold
C392L13F8 (Fc fusion) HSQGTFTSDYSKYLDEEAAQDFVQWLMNTGPSSGAPPPSGGGGSGGGGSGGGGSA[human IgG4 Fc with S228P N297A (EU numbers) omitted here] |  |  | 1.74 | 1.67 | GLP-1R agonist activity ratio (after against before insertion of Cex; reference C303L13F8) (human GLP-1 receptor [3]): 224 fold
C225L13F8 (Fc fusion) HSQGTFTSDYSKYLDERAAQDFVQWLMNTGPSSGAPPPSGGGGSGGGGSGGGGSA[human IgG4 Fc with S228P N297A (EU numbers) omitted here] |  |  | 1.59 | 1.36 | GLP-1R agonist activity ratio (after against before insertion of Cex; reference C224L13F8) (human GLP-1 receptor [3]): 211 fold
C495L13F8 (Fc fusion) HSQGTFTSDYSKYLDEQAAQDFVQWLMNGGPSSGAPPPSGGGGSGGGGSGGGGSA[human IgG4 Fc with S228P N297A (EU numbers) omitted here] |  |  | 1.48 | 1.5 | GLP-1R agonist activity ratio (after against before insertion of Cex; reference CG308L13F8) (human GLP-1 receptor [3]): 237 fold
C209L13F8 (Fc fusion) HSQGTFTSDYSKYLDSEAAQDFVQWLMNGGPSSGAPPPSGGGGSGGGGSGGGGSA[human IgG4 Fc with S228P N297A (EU numbers) omitted here] | 2.41 | 1.63 |  |  | 
C240L12F8 (Fc fusion) HSQGTFTSDYSKYLDERAAQDFVQWLMNGGPSSGAPPPSGGGGAGGGGAGGGGAA[human IgG4 Fc with S228P N297A (EU numbers) omitted here] | 1.46 | 1.33 |  |  | 
C382L13F8 (Fc fusion) HSQGTFTSDYSKYLDSQAAQDFVQWLMNGGPSSGAPPPSGGGGSGGGGSGGGGSA[human IgG4 Fc with S228P N297A (EU numbers) omitted here] |  |  | 1.75 | 1.33 | GLP-1R agonist activity ratio (after against before insertion of Cex; reference CG214L13F8) (human GLP-1 receptor [3]): 206 fold
C276L13F8 (Fc fusion) HSQGTFTSDYSKYLDSRAAQDFVQWLMNGGPSSGAPPPSGGGGSGGGGSGGGGSA[human IgG4 Fc with S228P N297A (EU numbers) omitted here] |  |  | 1.69 | 1.23 | GLP-1R agonist activity ratio (after against before insertion of Cex; reference CG267L13F8) (human GLP-1 receptor [3]): 214 fold
C368L13F8 (Fc fusion) HSQGTFTSDYSKYLDEQAAQDFVQWLMNTGPSSGAPPPSGGGGSGGGGSGGGGSA[human IgG4 Fc with S228P N297A (EU numbers) omitted here] |  |  | 1.68 | 1.51 | GLP-1R agonist activity ratio (after against before insertion of Cex; reference C308L13F8) (human GLP-1 receptor [3]): 244 fold
C352L13F4 (Fc fusion) HSQGTFTSDYSKYLDEQAAQDFVQWLMNGPSSGAPPPSGGGGSGGGGSGGGGSA[human IgG1 Fc with changes omitted here] | 1.75 | 1.23 |  |  | 
C611L11F4 (Fc fusion) HSQGTFTSDYSKYLDERAAQDFVQWLLDGPSSGAPPPSGGSGGGGSGGGGSGGA[human IgG1 Fc with changes omitted here] | 1.32 | 1.19 |  |  | 
C382L13F3L10M2 (Fc fusion) HSQGTFTSDYSKYLDSQAAQDFVQWLMNGGPSSGAPPPSGGGGSGGGGSGGGGSA[human IgG1 Fc with changes omitted here]GGGGAGGGGAGGGGAHPIPDSSPLLQFGGQVRQRYLYTDDAQQTEAHLEIREDGTVGGAADQSPESLLQLKALKPGVIQILGVKTSRFLCQRPDGALYGSLHFDPEACSFRERLLEDGYNVYQSEAHGLPLHCPGNKSPHRDPAPRGPCRFLPLPGLPPALPEPPGILAPQPPDVGSSDPLSMVGGSQGRSPSYES |  |  |  |  | GLP-1R agonist activity EC50 (luciferase reporter) (human GLP-1 receptor [5]): 1.14 nM; GCGR agonist activity EC50 (luciferase reporter) (Glucagon receptor [6]): 1.02 nM; FGF21 activity EC50 (luciferase reporter) [7]: 0.61 nM
C382L13F9L10M2 (Fc fusion) HSQGTFTSDYSKYLDSQAAQDFVQWLMNGGPSSGAPPPSGGGGSGGGGSGGGGSA[human IgG4 Fc with S228P F234A L235A (EU numbers) omitted here]GGGGAGGGGAGGGGAHPIPDSSPLLQFGGQVRQRYLYTDDAQQTEAHLEIREDGTVGGAADQSPESLLQLKALKPGVIQILGVKTSRFLCQRPDGALYGSLHFDPEACSFRERLLEDGYNVYQSEAHGLPLHCPGNKSPHRDPAPRGPCRFLPLPGLPPALPEPPGILAPQPPDVGSSDPLSMVGGSQGRSPSYES |  |  |  |  | GLP-1R agonist activity EC50 (luciferase reporter) (human GLP-1 receptor [5]): 1.23 nM; GCGR agonist activity EC50 (luciferase reporter) (Glucagon receptor [6]): 1.13 nM; FGF21 activity EC50 (luciferase reporter) [7]: 0.83 nM
